Results reported in PubChem BioAssay AID1460 (National Center for Advancing Translational Sciences (NCATS), 2008).
The campaign covered roughly 270,000 compounds. About 5,800 (2.1%) were called active. The inconclusive results got no clear call from the source; some entries with a clear call stand among them for comparison. Calls follow the shape of the dose curve; as a rule, active = well fitted inhibition curve with a large enough effect; inconclusive = small, poorly fitted or top-dose-only effect; inactive = flat fitted curve, though single readings scatter. Where the call is inconclusive, the potency comes from a doubtful curve fit.

Each compound was assayed against Microtubule-associated protein tau (Homo sapiens) (UniProt P10636) (assay: qHTS for Inhibitors of Tau Fibril Formation, Thioflavin T Binding). Settings: recombinant tau K18 P301L, heparin-induced fibrillization, ThT fluorescence; series mostly up to 57.4 µM.
UniProt P10636, sequence (P10636 whole entry, looked up): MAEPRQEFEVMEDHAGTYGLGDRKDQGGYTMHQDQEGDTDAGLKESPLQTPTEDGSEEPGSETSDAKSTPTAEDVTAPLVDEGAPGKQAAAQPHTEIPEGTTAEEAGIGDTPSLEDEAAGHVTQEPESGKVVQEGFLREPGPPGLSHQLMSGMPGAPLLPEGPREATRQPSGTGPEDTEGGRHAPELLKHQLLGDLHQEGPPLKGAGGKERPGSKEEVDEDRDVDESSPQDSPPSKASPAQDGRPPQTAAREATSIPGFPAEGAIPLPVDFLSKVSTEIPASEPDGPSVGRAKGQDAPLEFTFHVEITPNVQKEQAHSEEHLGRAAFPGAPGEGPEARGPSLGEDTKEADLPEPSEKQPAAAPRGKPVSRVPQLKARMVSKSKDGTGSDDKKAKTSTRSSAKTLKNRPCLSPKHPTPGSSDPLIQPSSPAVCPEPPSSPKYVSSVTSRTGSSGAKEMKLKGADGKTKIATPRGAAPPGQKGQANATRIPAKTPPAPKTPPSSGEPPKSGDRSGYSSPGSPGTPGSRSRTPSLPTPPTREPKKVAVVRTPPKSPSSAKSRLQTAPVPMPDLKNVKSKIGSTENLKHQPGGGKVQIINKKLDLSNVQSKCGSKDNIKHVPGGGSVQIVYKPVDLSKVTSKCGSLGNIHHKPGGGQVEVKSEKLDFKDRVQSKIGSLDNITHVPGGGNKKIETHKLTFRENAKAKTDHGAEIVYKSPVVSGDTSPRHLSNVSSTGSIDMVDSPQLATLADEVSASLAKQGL
Outline: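 Using a mix of unlabeled (15 uM) and Alexa 594-labeled (0.24 uM) tau K18 P301L, heparin-triggered fibrillization over 6 hr at 37 C was scored by ThT fluorescence.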
Also: nearly all actives have a fitted effect of over 55% in size.
Potency is read from the fitted curve at half-maximal effect; tags tell the direction and shape of the fitted curve.

Which Potency does the source give for `Fc1cccc(CSc2ccc(-c3ccc4c(c3)OCO4)nn2)c1` here?
The Potency was inconclusive: 1.78 µM [inhibitor, full curve].

`CCc1ccc2oc(C(=O)Nc3nc(-c4ccccc4)ns3)c(C)c2c1` was tested. Which Potency did it give?
Its Potency is inconclusive: 0.708 µM [inhibitor, full curve, poor fit].

For `COC(=O)COc1ccc(-c2ccc(F)cc2)cc1C=O`, which Potency is on record?
Its Potency is inconclusive: 8.91 µM [inhibitor, partial curve].

`N#CCSc1n[nH]c2nc3c(c(=O)n12)C1(CCCC1)Cc1ccccc1-3` was tested. Which Potency did it give?
Its Potency is inconclusive: 17.8 µM [inhibitor, partial curve].

How did the Potency turn out when `COCCn1c(N)c(N(Cc2ccccc2)C(=O)c2oc3ccccc3c2C)c(=O)[nH]c1=O` was run?
The Potency was “inactive”.

`CC(Cc1cccs1)NC(=S)Nc1ccccc1` (stereo unspecified) was tested. Which Potency did it give?
Its Potency is “inactive”.

How did the Potency turn out when `CC(=O)Nc1ccc(S(=O)(=O)Nc2nc3ccccc3nc2N2CCCCCC2)cc1` was run?
Its Potency is “inactive”.

With `CCCCC1=CC2=C(c3ccco3)C(=O)C(C)(OC(=O)c3ccc(OC)cc3)C(=O)C2=CN1c1ccc(OC)cc1` (stereo unspecified) as the compound, how does the Potency read?
Its Potency is “inactive”.

For `c1ccc2c(c1)CC(N1CCN(c3cccc4c3OCCO4)CC1)C2`, which Potency is on record?
The Potency was “inactive”.

How did the Potency turn out when `COC(=O)C(Cc1c[nH]c2ccccc12)NC(=O)c1cc(-c2ccc(OC)c(OC)c2)oc1C` (stereo unspecified) was run?
Its Potency is inconclusive: 17.8 µM [inhibitor, partial curve, poor fit].

For `O=C(Nc1cccc(C(=O)N2CCN(c3ccc(F)cc3)CC2)c1)c1nsc2ccccc12`, which Potency is on record?
The Potency was “inactive”.

Which Potency does the source give for `Cc1cccc(N2CCC(N3CCN(C4CCCCC4)C(CCO)C3)CC2)c1C` (stereo unspecified) here?
Its Potency is active: 10 µM.

With `CCCCCCNc1ncnc2c1sc1nc(N3CCOCC3)c3c(c12)CCCC3` as the compound, how does the Potency read?
The Potency was “inactive”.

For `COc1cc(CNc2cccc(C(=O)O)c2)cc(Br)c1OCC(=O)NC(C)(C)C`, which Potency is on record?
The Potency was inconclusive: 39.8 µM [inhibitor, single point].

How did the Potency turn out when `COC(=O)C1CCN(C(=O)CSc2nc3ccc(OC)cc3[nH]2)CC1` was run?
Its Potency is “inactive”.

For `CCOC(=O)C1(Cc2ccccc2C(F)(F)F)CCN(C2CCN(C(C)=O)CC2)CC1`, which Potency is on record?
Its Potency is “inactive”.

`Cn1nc(-c2ccc(Cl)cc2)cc1NC(=O)CSCC(=O)O` was tested. Which Potency did it give?
The Potency was inconclusive: 31.6 µM [inhibitor, single point].

Which Potency does the source give for `COc1ccc(-c2cc(=O)c3cc(F)ccc3[nH]2)cc1` here?
Its Potency is “inactive”.

Which Potency does the source give for `O=C(N/N=C/c1ccc(OCC(=O)N2CCCCC2)cc1)c1ccccc1` here?
Its Potency is inconclusive: 11.2 µM [inhibitor, partial curve].

For `COC(=O)c1cc(=O)n(CCc2ccc(OC)c(OC)c2)c(=Nc2ccc(F)c(Cl)c2)s1`, which Potency is on record?
Its Potency is inconclusive: 39.8 µM [inhibitor, single point].

Which Potency does the source give for `C=CCn1c(-c2cccc(OC)c2)nc2nc3ccccc3nc21` here?
The Potency was inconclusive: 44.7 µM [inhibitor, single point].

For `CCOc1ccc(NC(=O)/C=C/c2ccc(OC)cc2)c([N+](=O)[O-])c1`, which Potency is on record?
The Potency was inconclusive: 1.12 µM [inhibitor, full curve].

With `CN(C)CCCNc1ccc(-c2cc(Nc3cccc(Cl)c3)ncn2)cn1` as the compound, how does the Potency read?
The Potency was inconclusive: 20 µM [activator, partial curve].

`O=C(Oc1cccc([N+](=O)[O-])c1)c1cc(-c2ccccc2)nc2ccccc12` was tested. Which Potency did it give?
The Potency was inconclusive: 31.6 µM [inhibitor, partial curve].

For `COc1ccc(O)c(C(=O)c2cnc3onc(C(C)C)c3c2)c1`, which Potency is on record?
Its Potency is inconclusive: 31.6 µM [inhibitor, single point].

`Nc1c(Cl)cc(NC(=O)c2ccccc2C(=O)O)cc1Br` was tested. Which Potency did it give?
The Potency was inconclusive: 20 µM [inhibitor, single point].

For `Cc1ccccc1NC(=S)NCc1cccn1C`, which Potency is on record?
The Potency was “inactive”.

For `O=C(COC(=O)C1Cc2ccccc2CN1C(=O)c1ccccc1Cl)Nc1ccc(N2CCOCC2)cc1` (stereo unspecified), which Potency is on record?
The Potency was inconclusive: 12.6 µM [inhibitor, partial curve].

`COc1ccccc1/C=C/c1nc(C#N)c(NC(C)c2ccccc2)o1` (stereo unspecified) was tested. Which Potency did it give?
The Potency was inconclusive: 11.2 µM [inhibitor, partial curve].

For `Cc1cc(NC(=O)c2ccc(Br)c(S(=O)(=O)N3CCCC3)c2)no1`, which Potency is on record?
The Potency was “inactive”.

`CCN(CC)c1ccc(NC(=O)c2c(OC)cccc2OC)c(C)c1` was tested. Which Potency did it give?
The Potency was inconclusive: 3.55 µM [inhibitor, full curve].

`CC(/C=C/c1ccc2c(c1)OCO2)=N\NC(=O)c1ccccc1` was tested. Which Potency did it give?
Its Potency is inconclusive: 2.51 µM [inhibitor, full curve].

How did the Potency turn out when `COc1ccc(CNC(=O)C(=O)NCC(c2cccs2)S(=O)(=O)c2ccc(C)cc2)cc1` (stereo unspecified) was run?
The Potency was “inactive”.

How did the Potency turn out when `O=c1oc2cc(OCc3ccc([N+](=O)[O-])cc3)ccc2c2c1CCCC2` was run?
Its Potency is inconclusive: 0.501 µM [inhibitor, full curve].

How did the Potency turn out when `CC1=Nc2ccccc2/C1=C\c1nc(-c2ccccc2)oc1O` was run?
Its Potency is active: 5.01 µM.

Which Potency does the source give for `O=C(N/N=C/c1cccs1)c1cc(-c2cccc3ccccc23)n[nH]1` here?
The Potency was inconclusive: 3.16 µM [inhibitor, partial curve].

`CCCCCCOc1ccccc1C(N)=O` was tested. Which Potency did it give?
The Potency was inconclusive: 39.8 µM [inhibitor, single point].

`CC1CCc2cccc3c2N1c1cc(C#N)c(C#N)cc1O3` (stereo unspecified) was tested. Which Potency did it give?
The Potency was inconclusive: 3.98 µM [inhibitor, full curve].

How did the Potency turn out when `CCOC(=O)N1CCC(NC(=O)c2cnn(-c3cccc(C)c3)c2C2CCN(C(=O)OC(C)(C)C)CC2)CC1` was run?
Its Potency is inconclusive: 14.1 µM [inhibitor, partial curve].

How did the Potency turn out when `CC1=NN(c2ccccc2)C(=O)/C1=C/C=C/c1ccc(N(C)C)cc1` was run?
Its Potency is active: 2 µM.

With `O=C(N/N=C/C(Br)=C/c1ccccc1)c1ccncc1` as the compound, how does the Potency read?
Its Potency is inconclusive: 35.5 µM [inhibitor, single point].

For `Cc1sc(NC(=S)NC(=O)c2ccco2)c(C#N)c1C`, which Potency is on record?
Its Potency is “inactive”.

With `Clc1ccc(CN2CCc3nc(Nc4ccc5c(c4)OCCO5)ncc3C2)cc1` as the compound, how does the Potency read?
The Potency was inconclusive: 5.01 µM [inhibitor, partial curve].

With `C/C(=N\OC(=O)c1ccc(OC(C)C)cc1)c1ccc(C)c(C)c1` as the compound, how does the Potency read?
The Potency was inconclusive: 1 µM [inhibitor, full curve].

Which Potency does the source give for `Cc1ccc(C(=O)c2ccccc2C(=O)OCC(=O)Nc2cccc([N+](=O)[O-])c2)cc1` here?
Its Potency is “inactive”.

How did the Potency turn out when `CN1/C(=C/C2CC(=O)NC2=O)C(C)(C)c2ccccc21` (stereo unspecified) was run?
The Potency was active: 28.2 µM.

How did the Potency turn out when `CC(C)NC(=O)c1nn(C)c2c1CS(=O)(=O)c1ccccc1-2` was run?
Its Potency is “inactive”.

How did the Potency turn out when `O=C(NC(=S)Nc1ccc(F)c([N+](=O)[O-])c1)c1ccccc1F` was run?
Its Potency is inconclusive: 25.1 µM [inhibitor, partial curve].

With `COc1ccc(C)cc1NC(=O)c1ccccc1NS(=O)(=O)c1ccc(Cl)s1` as the compound, how does the Potency read?
The Potency was inconclusive: 31.6 µM [inhibitor, single point].

`COc1ccc(N/N=C2/CCCCC2=O)cc1` was tested. Which Potency did it give?
The Potency was inconclusive: 25.1 µM [inhibitor, partial curve].

For `CCCC(=O)NC(c1ccc(N(C)C)cc1)c1c(O)ccc2ccccc12` (stereo unspecified), which Potency is on record?
Its Potency is “inactive”.

With `N#C/C(=C\c1ccc(OC(=O)c2ccc(Br)s2)cc1)c1nc2ccccc2[nH]1` as the compound, how does the Potency read?
The Potency was inconclusive: 2.24 µM [inhibitor, full curve].

`COc1cc(CNc2ccc(N3CCOCC3)cc2)cc(Br)c1OC` was tested. Which Potency did it give?
Its Potency is inconclusive: 28.2 µM [inhibitor, single point].

Which Potency does the source give for `O=C(CCCN1C(=O)/C(=C\c2cccc(Br)c2)SC1=S)Nc1cccnc1` here?
The Potency was inconclusive: 2.24 µM [inhibitor, full curve].

Which Potency does the source give for `COc1ccc(CCNC(=O)Cn2nnc(-c3cccc(C(F)(F)F)c3)n2)cc1OC` here?
The Potency was “inactive”.

With `Cc1cc(C)nc(N2N=C(CSc3ccc(Cl)cc3)CC2=O)n1` as the compound, how does the Potency read?
Its Potency is inconclusive: 11.2 µM [inhibitor, partial curve].

`CCOC(=O)c1ccc(NC(=O)c2ccc3c(c2)CCN3S(=O)(=O)c2ccc(Cl)cc2)cc1` was tested. Which Potency did it give?
Its Potency is “inactive”.

With `COc1ccc(CNC(=O)c2cc(Nc3ccc(OC)cc3OC)nc3ccccc23)cc1` as the compound, how does the Potency read?
Its Potency is inconclusive: 5.01 µM [inhibitor, partial curve].

How did the Potency turn out when `COc1cc2[nH]c(=O)n(Cc3ccc(C(=O)N4CCN(c5cccc(C)c5C)CC4)cc3)c(=O)c2cc1OC` was run?
The Potency was inconclusive: 44.7 µM [inhibitor, single point].

With `Cc1cccc(NS(=O)(=O)c2nnc(NC(=O)C3CCCCC3)s2)c1` as the compound, how does the Potency read?
The Potency was inconclusive: 6.31 µM [inhibitor, partial curve].

How did the Potency turn out when `COc1cc(NS(=O)(=O)c2ccc(NC(C)=O)cc2)nc(OC)n1` was run?
Its Potency is “inactive”.

With `Nc1nc(Cl)cc(N2CCC(c3cc(-c4ccc(Cl)cc4Cl)n[nH]3)CC2)n1` as the compound, how does the Potency read?
The Potency was inconclusive: 14.1 µM [inhibitor, partial curve].

Which Potency does the source give for `CCN(CC)S(=O)(=O)c1cccc(C(=O)Nc2ccc(Cl)cn2)c1` here?
The Potency was “inactive”.

How did the Potency turn out when `CCCCCn1c(=O)[nH]c2cc(C(=O)Nc3ccc(OC)c(OC)c3)ccc2c1=O` was run?
The Potency was inconclusive: 4.47 µM [inhibitor, partial curve].

For `Nc1nc2ccc([N+](=O)[O-])c(N)c2s1`, which Potency is on record?
The Potency was active: 11.2 µM.

`CCC1=C2CC[C@H]3C(=O)N(CC)C(=O)[C@H]3[C@H]2[C@@]2(Cc3ccccc3)C(=NCC3CC3)OC(=O)N2C1=O` was tested. Which Potency did it give?
The Potency was “inactive”.

For `CCCN1CNC(=S)N(CC2CCCO2)C1` (stereo unspecified), which Potency is on record?
Its Potency is “inactive”.

For `CC(C)Nc1nc(NC(C)C)nc(N(C#N)C(C)C(=O)N(C)C)n1` (stereo unspecified), which Potency is on record?
The Potency was inconclusive: 7.94 µM [inhibitor, partial curve].

Which Potency does the source give for `O=C(Nc1ccc(N2CCN(C(=O)c3cccs3)CC2)cc1)c1cccnc1` here?
Its Potency is inconclusive: 15.8 µM [inhibitor, partial curve].

How did the Potency turn out when `CCCc1ccc(OCc2ccc(C(=O)N3CCN(c4ccccn4)CC3)o2)c(OC)c1` was run?
The Potency was inconclusive: 17.8 µM [inhibitor, partial curve].

`O=C(c1cc(Cl)cc(Cl)c1)N1CCC(=O)N(C(COCc2ccccc2)Cc2ccccc2)CC1` (stereo unspecified) was tested. Which Potency did it give?
Its Potency is inconclusive: 25.1 µM [inhibitor, single point].
